Some of the results follow. The energies were worked out here from pooled read counts, against the library average; single values are noisy.
target: T1, Pho4 (S. cerevisiae) (UniProt P07270); assay: relative binding free energy (BET-seq); higher = weaker binding; settings: reference: library average
T1 sequence: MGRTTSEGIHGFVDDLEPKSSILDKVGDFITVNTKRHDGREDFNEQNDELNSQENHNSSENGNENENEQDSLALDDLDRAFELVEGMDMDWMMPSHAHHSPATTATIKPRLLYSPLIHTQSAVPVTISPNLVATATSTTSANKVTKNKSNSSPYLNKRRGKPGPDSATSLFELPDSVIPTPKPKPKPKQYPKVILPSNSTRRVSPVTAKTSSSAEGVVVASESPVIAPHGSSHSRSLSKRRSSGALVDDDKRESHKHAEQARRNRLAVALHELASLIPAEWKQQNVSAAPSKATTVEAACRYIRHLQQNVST

Sequence | relative binding free energy [kcal/mol]
TAATTCACGTGGACGG | 0.22
CTAGTCACGTGTTGTT | 0.07
CGGTACACGTGCTGGT | -0.05
TGTAACACGTGATTTG | 0.19
TGCTGCACGTGGTATA | -0.17
GAGGACACGTGAAGGG | 0.37
TATTGCACGTGAATAG | 0.24
ATATACACGTGGGTTG | -0.07
GGTGGCACGTGATTGT | 0.1
TTTTTCACGTGCAGTA | 0.36
CGGTGCACGTGTGTGA | 0.07
GGTTGCACGTGTCTAT | 0.04
TAAGACACGTGTGCGT | -0.03
TAACGCACGTGCGTTT | 0.12
AGGTCCACGTGTATTG | -0.19
TAGGTCACGTGCGCTT | 0.02
CATGACACGTGTGTTG | -0.17
CTGTTCACGTGACGGG | 0.39
CTGGCCACGTGGAGTG | -0.07
AGAATCACGTGTGGTT | 0.3
GCAGGCACGTGAAGGT | 0.23
GCGGTCACGTGTAGAA | 0.3
GCGTGCACGTGAGCTG | 0.07

Sequence | relative binding free energy [kcal/mol]
TGGTACACGTGCGTGG | 0.06
CTGTTCACGTGGGTGT | 0.21
GAATGCACGTGGTGAT | -0.02
GGATGCACGTGTATGC | 0
TTATCCACGTGTGTGA | 0.01
AAATACACGTGGCGGG | 0.04
CGTGGCACGTGGCGAT | -0.16
TCATGCACGTGGGAAG | 0.03
TTATCCACGTGGGTTA | -0.12
ACGCGCACGTGGGGGT | -0.36
TGGGACACGTGAGGAA | 0.32
GCGAACACGTGATGGT | 0.3
AGTTTCACGTGTATAT | 0.18
CGTGGCACGTGCGAGA | -0.07
TATATCACGTGTTGGG | 0.13
GTTCTCACGTGAGTAT | 0.31
TGCGTCACGTGTTGAA | 0.13
TTCAGCACGTGTGATA | 0.07
TTTCGCACGTGGGGCA | -0.21
GTGATCACGTGGGTAC | 0
GGTGCCACGTGTGTTG | -0.13
GCCCGCACGTGTGGGT | 0.06
TATTACACGTGTGCGC | 0.27

Sequence | relative binding free energy [kcal/mol]
GAGGTCACGTGTTCTA | 0.24
AGCGGCACGTGGGTTG | -0.2
CGTAGCACGTGACGGT | 0.09
CCGGTCACGTGATTTT | 0.39
ATTGACACGTGTTAAG | 0.09
TTGCGCACGTGTGCGT | -0.21
TCTAGCACGTGGTGGA | -0.12
AGCAGCACGTGTTGGT | -0.08
TGAATCACGTGTGAGC | 0.3
AAACTCACGTGAAGGT | 0.49
TTGAGCACGTGGCTTA | -0.22
GTGATCACGTGATAGG | 0.21
GTGTTCACGTGCTTTT | 0.25
TTGTTCACGTGTCGTC | 0.1
AGCGTCACGTGATTTT | 0.26
TGAAGCACGTGTGGGG | -0.03
GTTTTCACGTGGGGCT | 0.29
TGTGGCACGTGACAGT | -0.02
GTGGACACGTGGCAGG | 0.12
ACATGCACGTGGGGCG | -0.09
CGAGGCACGTGTGGCG | -0.18
GAAGGCACGTGTAATT | 0.04
GGTATCACGTGGAGAG | 0.22

Sequence | relative binding free energy [kcal/mol]
GGCGGCACGTGTGGGC | 0.13
TTATACACGTGTTCAT | -0.12
AGCGTCACGTGTTTGA | -0.01
GGTGGCACGTGGAAAT | -0.04
GGAGGCACGTGCGTGG | -0.11
CGGGACACGTGTTCGG | 0.09
GGAATCACGTGTTGAG | 0.16
GATTTCACGTGTAGGC | 0.3
TTAGTCACGTGCGGTA | 0.05
AGGATCACGTGGGTAT | -0.05
GTGAACACGTGGGGCA | -0.16
GGAGCCACGTGGGGGC | -0.31
TTGAACACGTGACGTT | 0.21
GGTGTCACGTGTCGTC | 0.17
CAGGACACGTGGGATG | -0.1
TTGTCCACGTGATGTA | 0.09
GGTAGCACGTGTGAAT | 0.06
TTGAACACGTGTTTTG | 0.09
GCGTCCACGTGTGGTG | 0.01
TTGTGCACGTGGGAAC | -0.03
GAGTACACGTGGTGTG | 0.18
CATGTCACGTGGATGG | 0.07
CAGTGCACGTGGGATG | -0.18

Sequence | relative binding free energy [kcal/mol]
GGGTGCACGTGAATTA | 0.26
CGAGTCACGTGTGTAG | 0.06
GCTTGCACGTGGTGGT | 0.06
GTAAGCACGTGGTGCT | -0.12
AGGTACACGTGCTGTT | -0.01
AGGTACACGTGCTGCG | 0.1
TGATTCACGTGCGAGT | 0.31
TTTAACACGTGTGCAT | 0.01
CCAGGCACGTGTGTTG | -0.05
CGCTTCACGTGGTGTA | 0.19
GGTGACACGTGAGGCA | 0.17
GATGGCACGTGGAATT | 0.05
GTGTCCACGTGTGTTA | 0.24
GATGTCACGTGGGATG | 0.13
TGATGCACGTGCGGCT | -0.1
GTGAACACGTGGTTGA | 0.08
AGGTGCACGTGTCTGG | 0.03
TAGAGCACGTGAGTTT | 0.1
TTAATCACGTGCCGTG | 0.18
GGGTCCACGTGGATTA | 0.22
TTATGCACGTGTGGTG | -0.07
CTGGCCACGTGTTTTG | 0
TGTGTCACGTGGATGC | 0.01

— the BET-seq Pho4 binding data (Le et al. 2018)
